Results taken from the supplement of paper PMC11417369.
The other results are listed elsewhere or left out.

Tested on: PfHDP1 homeodomain (GST-tagged)
Assay: gcPBM binding intensity (ln(normalized median fluorescence intensity)); higher = stronger DNA binding
Outline: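 Binding intensity is the highest Masliner-normalised natural-log median intensity over replicate spots in either probe orientation. To obtain it, GST-tagged P. falciparum DNA-binding domains made in E. coli were incubated for 1 h on an Agilent 4 × 180k array of primer-extended double-stranded 36-bp intergenic genomic probes plus negative controls. Detection used Alexa488 anti-GST antibody with scanning at 488 nm.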

| Sequence | gcPBM binding intensity (ln) |
| --- | --- |
| AACTATAAAAATTTTACACACTGTTTTTAAATAATG [CACACA_site5928] | 6.89 |
| AATTTTTTTTTTAGACGTACAAGAAAAAACAAAAAA [XGTACX_site4990] | 6.53 |
| TTATGCCTTTAATATACACACTAATATTTTTTTGGC [CACACA_site5171] | 6.78 |
| TGTCATATTATAAATTGTACAAATAGTATAATTATT [XGTACX_site581] | 6.3 |
| ATAAAAATATTATAAGCACACATATATATATATATA [CACACA_site8781] | 9.54 |
| AGTATACATATATATACACACATATATATATATATA [CACACA_site300] | 9.27 |
| ATTTTATCTTTAAACTGTACGTATTAATATGTAGAA [XGTACX_site3077] | 6.27 |
| GTAAAATGATATAAATGTACATAATATATATATGTC [XGTACX_site4049] | 6.55 |
| TGTGTATTTATAAATACACACCAAATGTTAATATAT [CACACA_site6904] | 6.9 |
| ACAAGGTTTACGGGTAGTACAAATTTTTGAACATCT [XGTACX_site4739] | 5.96 |
| TTTTTTTTTTTTTTTTGTACTCATATCTACTATCAT [XGTACX_site274] | 6.44 |
| ATATAGATGCATAATACACACATCAGATAATTAACC [CACACA_site6871] | 6.96 |
| ATAAAAATTGATTATACACACGCGCCCAGACAACAA [CACACA_site5870] | 6.82 |
| ATTAAAAGTTTATACAAATAAAAAACAAAACAAAAA [CACACA_negctrl_site1030] | 6.61 |
| AGCCAAACCTTAAATTTAGCAATAAGTTTACAGGTC [CACACA_negctrl_site360] | 6.3 |
| AAATAATTTGTTGACACACACACACCCATACAGATA [CACACA_site5291] | 7.13 |
| TTTTGACCATATCTGTTGCACTTTTGTGCTATTCGA | 8.05 |
| CATTATGTCGTAAATACACACATACATATACATACA [CACACA_site8383] | 6.84 |
| AAGGATCACAGACAAACACACATATATATATATATA [CACACA_site4469] | 9.43 |
| ATTAATTCGTTTTGTACACACATAATGAGTAATTTA [CACACA_site7118] | 6.55 |
| TAAATTTTTTCCTCCTGTACTTATTATATTTTTTTG [XGTACX_site1572] | 6.49 |
| TATGAAATTATAATTACACACAGGAAAATAAAATGT [CACACA_site1517] | 7.08 |
| ATATAATAATAAGGCACACAAATTAAAATATAAAAA [CACACA_site3710] | 6.65 |

| Sequence | gcPBM binding intensity (ln) |
| --- | --- |
| TATATATGCATATACATACACACATAACACATACGT [CACACA_site3833] | 7.16 |
| AATGTTTTATTTTGAAGTACATTTAAGAATTTTTTA [XGTACX_site7814] | 6.06 |
| TTATGTTCTTTAAAACCACACACCCCCCAACCCCCC [CACACA_site8742] | 8.95 |
| TGTAGATTTTGTAACACACACATATATATACATATA [CACACA_site2405] | 6.6 |
| GTACACATATAGTAATAATTTTATTATATTTTTTTG [CACACA_negctrl_site843] | 6.46 |
| ATTTTAATATAAAATACACACTACTATTATAAATAT [CACACA_site4917] | 6.29 |
| ATTCTTATTTAAAGGTGTACTCTTAAACAGATTTTA [XGTACX_site3526] | 6.12 |
| CACCCCCACAGACACACACACACACCCACATATATA [CACACA_site365] | 6.96 |
| TTCATAAAATGATATTGTACAAATAAATAATAGTAT [XGTACX_site819] | 7.11 |
| AGATTTAAATTTATATGTACATAATATGGGCGTATA [XGTACX_site6631] | 7.08 |
| GGTCTTCTTAATATACTGCACTGTATACGTATATAA | 8.05 |
| ATTATATACATATATATACACACGTAGTTTCTATTT [CACACA_site8697] | 6.39 |
| ATATATATATATAAATGTACATTTTTCAATAGTTTT [XGTACX_site7449] | 8.98 |
| TATAAATAAATAGATACACACATATATATAAATACA [CACACA_site155] | 6.51 |
| TACTTTTTATTTTCTTGTACTTAATTGTCCAGATTT [XGTACX_site4334] | 6.68 |
| CTTATTATTATATGGGTGCTCATATTTTTCTTTTTT [GTGCAC_site9723] | 6.67 |
| ACAAACATTAGGGAAGCATGCAATATTTTTTTACAT [TGCATGCA_site372] | 6.68 |
| AGTTGTTTTAATAATGCATGTTATTTTATTTTAATA [TGCATGCA_site168] | 6.67 |
| GTATATATATATGTATATATTTTATTTTATTTTTAT [CACACA_negctrl_site1439] | 6.26 |
| TATATATATAGACACACACACACATATATATATATA [CACACA_site9366] | 9.14 |
| TAGATATATAGACACACACACATTAATACCTATATT [CACACA_site7605] | 6.83 |
| TGTCATTTAATTTTTTGTACGAAAAAAACATATAAA [XGTACX_site4952] | 6.64 |
| AAAAAAAAAAAGCACACACACATATGAGTATATATA [CACACA_site4683] | 6.91 |

| Sequence | gcPBM binding intensity (ln) |
| --- | --- |
| TAATATCATTTATGTAGTACTATAACAAGAACTATA [XGTACX_site3618] | 6.14 |
| GCTTATATAAAAAGTTGTACAACCGAATCTTTTACA [XGTACX_site2119] | 6.92 |
| TACACAAGCAGACACACACACATATATATATATATA [CACACA_site1270] | 9.36 |
| AATGTAAAAGTAAACACACACATATATAAATACATA [CACACA_site5386] | 6.7 |
| GTACATAGATTGTACATACACACCTATATAAATATC [CACACA_site3225] | 6.51 |
| TTTTTTTTGTTCTATACAATTATAAAAATAAAATAT [XGTACX_negctrl_site53] | 6.07 |
| AATATATGGTTCCATGATATTAAATTCAATTTAATG [CACACA_negctrl_site605] | 6.08 |
| AATTAAAAAAAATACACACACACATACACATATATA [CACACA_site3298] | 7.1 |
| CGTATTTATATAATTACACACCATATTATAATTATT [CACACA_site3760] | 6.85 |
| CCAAAAAAAAAAAAAAGTACATAAAAACAAGAGAAT [XGTACX_site3037] | 6.6 |
| AAGGGGTAAAGAAAAACACACAAAAAATAAAAATAT [CACACA_site361] | 6.78 |
| AAGAGAAAAATATATACACACACATAAATATATACA [CACACA_site8573] | 6.77 |
| TGCATACTTTTGTAAGTGCATAAAATCGTACCATGC | 8.83 |
| GAAATAATTCGATGTGCATGTAACGTTTCCCCAAAG [TGCATGCA_site122] | 8.71 |
| GATGAAAATAGAAATACACACTAAAAAATAAAATTA [CACACA_site4764] | 6.21 |
| ACATATAATATATAATGTACAAAATTGTTAACAATA [XGTACX_site3798] | 6.74 |
| GAAAGGATATATATATATATATATATAATACATTTC [GTGCAC_negctrl_site677] | 7.06 |
| TATATATACATACATACACACATATATATATATATT [CACACA_site4110] | 6.95 |
| CTCAATGTTTGCGATACATGCAAAAATTTTTAGAAT [TGCATGCA_site165] | 6.54 |
| TACATTTCATTGTAATCATAAAAAATAAAGAAAAAA [XGTACX_negctrl_site542] | 6.34 |
| AAAAAAAAAAAAAAAGTGCACAGTCGTTTTAAAAAA [GTGCAC_site9848] | 9.31 |
| TCTATATCTTTCAACACACAAATTTTTTTTTCCATC [CACACA_site4238] | 6.52 |
| AAGATAATATTTTCTTGTACGCATGCACATACAAAT [XGTACX_site7181] | 7.76 |

| Sequence | gcPBM binding intensity (ln) |
| --- | --- |
| ATGCAAAGTTTATAAAGTACATAAGTCAAAATAAAA [XGTACX_site1441] | 6.6 |
| CTTTTCTCCCTCCATAGTACAATTATAAAAATATAT [XGTACX_site3090] | 6.42 |
| AAATCATTTAAGAACACACAAATATTTCCATTAAAT [CACACA_site6808] | 6.67 |
| ATTAACTATCATAACACACACAGTAGACATATTTTT [CACACA_site1822] | 6.81 |
| TTATTTTTCCGGAATAGTACATAGACGCAGATATAA [XGTACX_site6356] | 6.79 |
| TAGAAGCATGGACACACACACATACATACCCATACA [CACACA_site4916] | 6.93 |
| TTAACATATTATAAGTGTACATATTTATAAACAAGA [XGTACX_site8806] | 6.69 |
| ATTTTGAAAAATAAAAGTACATATAATATATCTACA [XGTACX_site7185] | 5.93 |
| TCTGTTAATATTTATACACACATATTTATTTATATA [CACACA_site6658] | 6.94 |
| ATATACATATATATGGGTACATATATTAATATATAT [XGTACX_site8358] | 6.74 |
| CACTCCATATTATACACACACACAAATGAAAAAAAT [CACACA_site3019] | 7.33 |
| TTTAGATATATGGTAGTGCATAATAAAAATATAGCC [GTGCAC_site9449] | 9.6 |
| AATATTACAAAATATTGTCCGTACAAATTTTTAATA [XGTACX_site8129] | 6.11 |
| AAAAAAAAAAAAAAGACACACATATATATATATATA [CACACA_site633] | 9.46 |
| GATGATAAAATATGTACACACAGTTTATACATTTTG [CACACA_site4055] | 6.23 |
| TTCCCTTTTTTTATTTGTACTTATCTTTTAAATAAT [XGTACX_site2497] | 6.98 |
| AATTATAATTAATAGAGTACTGAATATATATATATA [XGTACX_site8683] | 8.9 |
| AGCATTTTTCATTTTGCACACATGTTTTATGTGTAT [CACACA_site3454] | 10.5 |
| ATATCGGGTGCATTAACACACATTTATTTGAATAAA [CACACA_site2350] | 9.57 |
| GCTTCTTAGTATACTTTATAAAATATATATTAAATA [XGTACX_negctrl_site57] | 7.06 |
